# From the supplement of paper PMC8728848
# This is one part of the list.
# B1: PX15618A-bth-503-24-503 (Bacteroides thetaiotaomicron) (protein)
# chain: NKSEDKLSGDDFWAQGNETNAEAFLLSIYNSFRNATMSQRPFLTYSGDMRCAPITAYSTGDKYVAYLANNDMGELRNTYPDDARGGLIMQWDVFYTAIQDANILLAEIDKVPGMDELKRSRFKAEAIFMRSLSYFFIVRAFGDVPYYTNAYNEAPLPRTNMVIVLQNCLADLQPLLDDDPGAEVLPWSYSSYSSKGIRASRGSVIALMMHINLWLVQFDAQNKEQYYRNVVSLGEELERNNGAYSLLDINRSSVIFAGGSDEGLFEIAQNINFNEIFMMNAKFSDNVSYSCLNKSMPLFCYSGDYLMTLFPMYEDDARKELWFDEKIYSTSVSSSAPKEIKKFWNIDTYGNGTITSNSGNQIVFRYAGALLLYAEALAALGTNDTKACELLNRVRNRAHASEINTSGSELMDAIFWERCRELIGEGHYYYDLVRTGKVYNRNYCMNPMTRTNFNVGAWTWPIHRNALKNNTQIGLNLFWE
# What was measured:
# Experiment in all cases: glycan array binding signal (z-score within array); higher = stronger binding
# Settings in all cases: glycan notation: IUPAC condensed, linker removed
# [1] = biological target: Gal(a1-3)Gal(b1-3)GlcNAc
# In short: (§1)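 The binding signal is a Z-score computed within each array. Data were drawn from 3228 arrays in the Consortium for Functional Glycomics database, restricted to those with a known protein sequence. Scores were averaged over arrays of the same protein sequence at different concentrations or buffers, and over linkers, and negative values can be taken as non-binding.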
# [2] = biological target: Gal(a1-3)Gal(b1-3)GlcNAc(b1-2)Man
# In short: as §1
# [3] = biological target: Gal(a1-3)Gal(b1-3)GlcNAc(b1-2)Man(a1-3)[Gal(a1-3)Gal(b1-3)GlcNAc(b1-2)Man(a1-6)]Man(b1-4)GlcNAc(b1-4)GlcNAc
# In short: as §1
# [4] = biological target: Gal(a1-3)Gal(b1-3)GlcNAc(b1-3)GalNAc
# In short: as §1
# [5] = biological target: Gal(a1-3)Gal(b1-3)GlcNAc(b1-6)GalNAc
# In short: as §1
# [6] = biological target: Gal(a1-3)Gal(b1-3)[Fuc(a1-4)]GlcNAc(b1-2)Man(a1-3)[Gal(a1-3)Gal(b1-3)[Fuc(a1-4)]GlcNAc(b1-2)Man(a1-6)]Man(b1-4)GlcNAc(b1-4)GlcNAc
# In short: as §1
# [7] = biological target: Gal(a1-3)Gal(b1-4)Glc
# In short: as §1
# [8] = biological target: Gal(a1-3)Gal(b1-4)GlcNAc
# In short: as §1
# [9] = biological target: Gal(a1-3)Gal(b1-4)GlcNAc(b1-2)Man
# In short: as §1
# [10] = biological target: Gal(a1-3)Gal(b1-4)GlcNAc(b1-2)Man(a1-3)[Gal(a1-3)Gal(b1-4)GlcNAc(b1-2)Man(a1-6)]Man(b1-4)GlcNAc(b1-4)GlcNAc
# In short: as §1
# [11] = biological target: Gal(a1-3)Gal(b1-4)GlcNAc(b1-3)GalNAc
# In short: as §1
# [12] = biological target: Gal(a1-3)Gal(b1-4)GlcNAc(b1-6)GalNAc
# In short: as §1
# [13] = biological target: Gal(a1-3)Gal(b1-4)[Fuc(a1-3)]GlcNAc
# In short: as §1
# [14] = biological target: Gal(a1-3)Gal(b1-4)[Fuc(a1-3)]GlcNAc(b1-2)Man(a1-3)[Gal(a1-3)Gal(b1-4)[Fuc(a1-3)]GlcNAc(b1-2)Man(a1-6)]Man(b1-4)GlcNAc(b1-4)GlcNAc
# In short: as §1
# [15] = biological target: Gal(a1-3)GalNAc
# In short: as §1
# [16] = biological target: Gal(a1-3)[Gal(a1-4)]Gal(b1-4)GlcNAc
# In short: as §1
# [17] = biological target: Gal(a1-4)Gal(b1-3)GlcNAc(b1-2)Man(a1-3)[Gal(a1-4)Gal(b1-3)GlcNAc(b1-2)Man(a1-6)]Man(b1-4)GlcNAc(b1-4)GlcNAc
# In short: as §1
# [18] = biological target: Gal(a1-4)Gal(b1-4)Glc
# In short: as §1
# [19] = biological target: Gal(a1-4)Gal(b1-4)GlcNAc
# In short: as §1
# [20] = biological target: Gal(a1-4)Gal(b1-4)GlcNAc(b1-2)Man(a1-3)[Gal(a1-4)Gal(b1-4)GlcNAc(b1-2)Man(a1-6)]Man(b1-4)GlcNAc(b1-4)GlcNAc
# In short: as §1
# [21] = biological target: Gal(a1-4)Gal(b1-4)GlcNAc(b1-3)Gal(b1-4)Glc
# In short: as §1
# [22] = biological target: Gal(a1-4)GlcNAc
# In short: as §1
# [23] = biological target: Gal(a1-6)Glc
# In short: as §1
# [24] = biological target: Gal(b1-2)Gal
# In short: as §1
# [25] = biological target: Gal(b1-3)Gal
# In short: as §1
# [26] = biological target: Gal(b1-3)Gal(b1-4)GlcNAc
# In short: as §1
# [27] = biological target: Gal(b1-3)GalNAc
# In short: as §1
# [28] = biological target: Gal(b1-3)GalNAc(a1-3)[Fuc(a1-2)]Gal(b1-4)Glc
# In short: as §1
# [29] = biological target: Gal(b1-3)GalNAc(a1-3)[Fuc(a1-2)]Gal(b1-4)GlcNAc
# In short: as §1
# [30] = biological target: Gal(b1-3)GalNAc(b1-3)Gal
# In short: as §1
# [31] = biological target: Gal(b1-3)GalNAc(b1-3)Gal(a1-4)Gal(b1-4)Glc
# In short: as §1
# [32] = biological target: Gal(b1-3)GalNAc(b1-4)Gal(b1-4)Glc
# In short: as §1
# [33] = biological target: Gal(b1-3)GalNAc(b1-4)[Neu5Ac(a2-3)]Gal(b1-4)Glc
# In short: as §1
# [34] = biological target: Gal(b1-3)GlcNAc
# In short: as §1
# [35] = biological target: Gal(b1-3)GlcNAc(a1-3)Gal(b1-4)GlcNAc
# In short: as §1
# [36] = biological target: Gal(b1-3)GlcNAc(a1-6)Gal(b1-4)GlcNAc
# In short: as §1
# [37] = biological target: Gal(b1-3)GlcNAc(b1-2)Man
# In short: as §1
# [38] = biological target: Gal(b1-3)GlcNAc(b1-2)Man(a1-3)[Gal(b1-3)GlcNAc(b1-2)Man(a1-6)]Man(b1-4)GlcNAc(b1-4)GlcNAc
# In short: as §1
binder,measurement,setting,value
B1,glycan array binding signal (z-score),[1],0.517
same,glycan array binding signal (z-score),[2],-0.573
same,glycan array binding signal (z-score),[3],1.26
same,glycan array binding signal (z-score),[4],-0.186
same,glycan array binding signal (z-score),[5],-0.284
same,glycan array binding signal (z-score),[6],6.49
same,glycan array binding signal (z-score),[7],-0.271
same,glycan array binding signal (z-score),[8],-0.019
same,glycan array binding signal (z-score),[9],-0.115
same,glycan array binding signal (z-score),[10],0.355
same,glycan array binding signal (z-score),[11],0.031
same,glycan array binding signal (z-score),[12],-0.447
same,glycan array binding signal (z-score),[13],-0.213
same,glycan array binding signal (z-score),[14],0.658
same,glycan array binding signal (z-score),[15],-0.389
same,glycan array binding signal (z-score),[16],3.72
same,glycan array binding signal (z-score),[17],0.075
same,glycan array binding signal (z-score),[18],0.319
same,glycan array binding signal (z-score),[19],-0.12
same,glycan array binding signal (z-score),[20],0.105
same,glycan array binding signal (z-score),[21],-0.389
same,glycan array binding signal (z-score),[22],0.225
same,glycan array binding signal (z-score),[23],-0.371
same,glycan array binding signal (z-score),[24],-0.544
same,glycan array binding signal (z-score),[25],0.14
same,glycan array binding signal (z-score),[26],-0.654
same,glycan array binding signal (z-score),[27],-0.315
same,glycan array binding signal (z-score),[28],-0.329
same,glycan array binding signal (z-score),[29],0.026
same,glycan array binding signal (z-score),[30],-0.346
same,glycan array binding signal (z-score),[31],-0.567
same,glycan array binding signal (z-score),[32],-0.291
same,glycan array binding signal (z-score),[33],-0.295
same,glycan array binding signal (z-score),[34],-0.227
same,glycan array binding signal (z-score),[35],-0.121
same,glycan array binding signal (z-score),[36],-0.593
same,glycan array binding signal (z-score),[37],-0.277
same,glycan array binding signal (z-score),[38],0.413
